In the antibiotic and cytotoxicity screens of Wong et al. (2023):
Some of the results follow.

The compounds below were run on HepG2 (assay: cytotoxicity call (relative viability < 0.9)). Conditions: 10 µM.
For `C[C@@H]1CN([C@@H](C)CO)C(=O)Cc2cc(NC(=O)CCCN(C)C)ccc2O[C@H]1CN(C)C(=O)Nc1ccccc1`, the cytotoxicity call was “inactive”. With `C[C@H]1CN([C@@H](C)CO)C(=O)c2c(c3ccccc3n2C)-c2ccccc2CO[C@@H]1CN(C)Cc1ccc(Oc2ccccc2)cc1` the cytotoxicity call was “inactive”. In the case of `COc1ccc(S(=O)(=O)N(C)C[C@@H]2Oc3ccc(N(C)C)cc3CC(=O)N([C@@H](C)CO)C[C@H]2C)cc1`, the cytotoxicity call is reported as “inactive”. With `COc1ccc(S(=O)(=O)N(C)C[C@@H]2OCCCC[C@H](C)Oc3ccc(NS(C)(=O)=O)cc3C(=O)N([C@@H](C)CO)C[C@H]2C)cc1` the cytotoxicity call was “inactive”. With `NCC[C@H]1CC[C@@H](NC(=O)c2ccccc2F)[C@H](CO)O1` the cytotoxicity call was “inactive”. For `CCS(=O)(=O)N1CCNCC1`, the cytotoxicity call was “inactive”. In the case of `C[C@@H]1CCCCO[C@@H](CN(C)Cc2ccc(Cl)c(Cl)c2)[C@@H](C)CN([C@H](C)CO)C(=O)c2cc(NC(=O)CCC(F)(F)F)ccc2O1`, the cytotoxicity call is reported as “inactive”. `N#Cc1c(N)nc(SCc2csc(-c3ccc(Cl)cc3)n2)c(C#N)c1-c1ccc(OCCO)cc1` was tested, and the cytotoxicity call was “inactive”. With `COCCN1C(=O)C2=C(C1=O)[C@H]1N(C)c3ccccc3[C@@]13C[C@@H](CO)N(C(C)=O)C3=N2` the cytotoxicity call was “inactive”. In the case of `C[C@H](CO)N1C[C@H](C)[C@H](CN(C)C(=O)Nc2cccc3ccccc23)OCCCC[C@H](C)Oc2ccc(N(C)C)cc2C1=O`, the cytotoxicity call is reported as “inactive”. With `O=C(O)CNC(=O)CN1C(=O)c2ccccc2C1=O` the cytotoxicity call was “inactive”. For `C[C@H](CO)N1C[C@H](C)[C@@H](CN(C)CC2CCCCC2)Oc2ccc(NS(=O)(=O)c3cn(C)cn3)cc2CC1=O`, the cytotoxicity call was “inactive”. `C[C@@H]1CCCCO[C@H](CN(C)S(=O)(=O)c2ccc(Cl)cc2)[C@@H](C)CN([C@H](C)CO)C(=O)c2cc(NC(=O)Cc3ccccc3)ccc2O1` was tested, and the cytotoxicity call was “active”. `CCc1nnc(N)o1` was tested, and the cytotoxicity call was “inactive”. For `Cc1sc(C)c(CNc2ccccc2)c1CNc1ccccc1`, the cytotoxicity call was “inactive”. For `Cc1noc(C)c1S(=O)(=O)Nc1ccc2c(c1)C(=O)N([C@@H](C)CO)C[C@@H](C)[C@H](CN(C)C(=O)Nc1ccc(F)cc1)OCCCC[C@@H](C)O2`, the cytotoxicity call was “inactive”. In the case of `C[C@H](CO)N1C[C@H](C)[C@@H](CN(C)C(=O)CCCN(C)C)OCCCC[C@H](C)Oc2ccc(NS(C)(=O)=O)cc2C1=O`, the cytotoxicity call is reported as “inactive”. In the case of `C[C@@H]1CN([C@H](C)CO)C(=O)c2cc(C#Cc3ccccc3F)cnc2O[C@H]1CN(C)C(=O)C1CCOCC1`, the cytotoxicity call is reported as “inactive”. For `CCOC(=O)C(CCc1ccccc1)NC(C)C(=O)N1Cc2ccccc2CC1C(=O)O` (stereo not given), the cytotoxicity call was “inactive”. In the case of `COC(=O)[C@@H](Cc1ccc(-n2cc(C(=O)NO)nn2)cc1)N1CC2=CC(=O)[C@@H](C3CC3)[C@@H]2[C@H]1[C@H](O)Cc1ccccc1`, the cytotoxicity call is reported as “inactive”. In the case of `C[C@H]1CN([C@@H](C)CO)C(=O)c2cccc(NC(=O)C3CC3)c2O[C@@H]1CN(C)C(=O)Nc1ccc2c(c1)OCO2`, the cytotoxicity call is reported as “inactive”. For `Cc1noc(C)c1S(=O)(=O)Nc1ccc2c(c1)CC(=O)N([C@@H](C)CO)C[C@@H](C)[C@H](CN(C)C(=O)NC1CCCCC1)O2`, the cytotoxicity call was “inactive”. `C[C@@H]1CN([C@H](C)CO)C(=O)c2cc(NC(=O)Cc3ccccc3)ccc2O[C@@H]1CN(C)Cc1ccc(-c2ccccc2)cc1` was tested, and the cytotoxicity call was “inactive”. For `C[C@H](CO)N1C[C@H](C)[C@@H](CN(C)Cc2ccc(C(F)(F)F)cc2)Oc2ccc(NC(=O)Nc3ccccc3)cc2CC1=O`, the cytotoxicity call was “inactive”. In the case of `C[C@@H]1CN([C@H](C)CO)C(=O)c2cc(NC(=O)Nc3cccc4ccccc34)ccc2O[C@@H](C)CCCCO[C@H]1CN(C)C`, the cytotoxicity call is reported as “inactive”. `CC(C)NC(=O)Nc1cccc2c1O[C@H](CN(C)S(=O)(=O)c1cn(C)cn1)[C@@H](C)CN([C@@H](C)CO)C2=O` was tested, and the cytotoxicity call was “inactive”.

These compounds were tested on S. aureus RN4220 (assay: growth inhibition call (relative growth <= 0.2)). Conditions: 50 µM.
For `C[C@H]1CN([C@@H](C)CO)C(=O)c2cc(-c3ccncc3)cnc2O[C@H]1CN(C)S(=O)(=O)c1ccccc1`, the growth inhibition call was “inactive”. In the case of `Cc1n[nH]c(=S)[nH]c1=O`, the growth inhibition call is reported as “inactive”. In the case of `CNc1ccccc1C(=O)N1CCc2c([nH]c3ccccc23)C1=O`, the growth inhibition call is reported as “inactive”. In the case of `CCC(=O)Nc1ccc2c(c1)C(=O)N(C)C[C@H](OC)[C@H](C)CN(C(=O)CN1CCOCC1)[C@@H](C)CO2`, the growth inhibition call is reported as “inactive”. For `C[C@H]1CN([C@@H](C)CO)C(=O)c2cc(NC(=O)C3CCCCC3)ccc2O[C@H]1CN(C)Cc1ccc(-c2ccccc2)cc1`, the growth inhibition call was “inactive”. `CCc1cccc2c3c([nH]c12)C(CC)(CC(=O)O)OCC3` (stereo not given) was tested, and the growth inhibition call was “inactive”. With `CCSc1nnc2c(=O)[nH]c(=O)[nH]c2n1` the growth inhibition call was “inactive”. With `O=C(N[C@@H]1CC[C@H](CCn2cc(C3(O)CCCC3)nn2)O[C@@H]1CO)C1CCOCC1` the growth inhibition call was “inactive”. For `CC(C)NC(=O)N(C)C[C@@H]1Oc2ccc(NC(=O)Cc3ccccc3)cc2CC(=O)N([C@@H](C)CO)C[C@@H]1C`, the growth inhibition call was “inactive”. `CN1CCN(C(=O)C[C@H]2CC[C@@H](NC(=O)c3ccc4c(c3)OCO4)[C@@H](CO)O2)CC1` was tested, and the growth inhibition call was “inactive”. For `C[C@H]1CN([C@@H](C)CO)C(=O)c2c(c3ccccc3n2C)-c2ccccc2CO[C@H]1CN(C)Cc1ccc2c(c1)OCO2`, the growth inhibition call was “inactive”. In the case of `C[C@@H]1CN([C@H](C)CO)C(=O)Cc2cc(NS(C)(=O)=O)ccc2O[C@@H]1CN(C)C(=O)Nc1ccc(F)cc1`, the growth inhibition call is reported as “inactive”. `C[C@@H]1CN([C@H](C)CO)C(=O)Cc2cc(NC(=O)Cc3cn(C)c4ccccc34)ccc2O[C@@H]1CN(C)Cc1ccc(Cl)c(Cl)c1` was tested, and the growth inhibition call was “inactive”. `C[C@@H]1CN([C@@H](C)CO)C(=O)Cc2cc(NC(=O)CCCN(C)C)ccc2O[C@H]1CN(C)C(=O)Nc1ccccc1` was tested, and the growth inhibition call was “inactive”. For `C[C@H]1CN([C@@H](C)CO)C(=O)c2c(c3ccccc3n2C)-c2ccccc2CO[C@@H]1CN(C)Cc1ccc(Oc2ccccc2)cc1`, the growth inhibition call was “inactive”. For `COc1ccc(S(=O)(=O)N(C)C[C@@H]2Oc3ccc(N(C)C)cc3CC(=O)N([C@@H](C)CO)C[C@H]2C)cc1`, the growth inhibition call was “inactive”. In the case of `COc1ccc(S(=O)(=O)N(C)C[C@@H]2OCCCC[C@H](C)Oc3ccc(NS(C)(=O)=O)cc3C(=O)N([C@@H](C)CO)C[C@H]2C)cc1`, the growth inhibition call is reported as “inactive”. `NCC[C@H]1CC[C@@H](NC(=O)c2ccccc2F)[C@H](CO)O1` was tested, and the growth inhibition call was “inactive”. For `CCS(=O)(=O)N1CCNCC1`, the growth inhibition call was “inactive”. With `C[C@@H]1CCCCO[C@@H](CN(C)Cc2ccc(Cl)c(Cl)c2)[C@@H](C)CN([C@H](C)CO)C(=O)c2cc(NC(=O)CCC(F)(F)F)ccc2O1` the growth inhibition call was “inactive”. With `N#Cc1c(N)nc(SCc2csc(-c3ccc(Cl)cc3)n2)c(C#N)c1-c1ccc(OCCO)cc1` the growth inhibition call was “inactive”. `COCCN1C(=O)C2=C(C1=O)[C@H]1N(C)c3ccccc3[C@@]13C[C@@H](CO)N(C(C)=O)C3=N2` was tested, and the growth inhibition call was “inactive”. In the case of `C[C@H](CO)N1C[C@H](C)[C@H](CN(C)C(=O)Nc2cccc3ccccc23)OCCCC[C@H](C)Oc2ccc(N(C)C)cc2C1=O`, the growth inhibition call is reported as “inactive”. In the case of `O=C(O)CNC(=O)CN1C(=O)c2ccccc2C1=O`, the growth inhibition call is reported as “inactive”. `C[C@H](CO)N1C[C@H](C)[C@@H](CN(C)CC2CCCCC2)Oc2ccc(NS(=O)(=O)c3cn(C)cn3)cc2CC1=O` was tested, and the growth inhibition call was “inactive”. For `C[C@@H]1CCCCO[C@H](CN(C)S(=O)(=O)c2ccc(Cl)cc2)[C@@H](C)CN([C@H](C)CO)C(=O)c2cc(NC(=O)Cc3ccccc3)ccc2O1`, the growth inhibition call was “inactive”. `CCc1nnc(N)o1` was tested, and the growth inhibition call was “inactive”. For `Cc1sc(C)c(CNc2ccccc2)c1CNc1ccccc1`, the growth inhibition call was “inactive”. In the case of `Cc1noc(C)c1S(=O)(=O)Nc1ccc2c(c1)C(=O)N([C@@H](C)CO)C[C@@H](C)[C@H](CN(C)C(=O)Nc1ccc(F)cc1)OCCCC[C@@H](C)O2`, the growth inhibition call is reported as “inactive”. In the case of `C[C@H](CO)N1C[C@H](C)[C@@H](CN(C)C(=O)CCCN(C)C)OCCCC[C@H](C)Oc2ccc(NS(C)(=O)=O)cc2C1=O`, the growth inhibition call is reported as “inactive”. For `C[C@@H]1CN([C@H](C)CO)C(=O)c2cc(C#Cc3ccccc3F)cnc2O[C@H]1CN(C)C(=O)C1CCOCC1`, the growth inhibition call was “inactive”. For `CCOC(=O)C(CCc1ccccc1)NC(C)C(=O)N1Cc2ccccc2CC1C(=O)O` (stereo not given), the growth inhibition call was “inactive”. In the case of `COC(=O)[C@@H](Cc1ccc(-n2cc(C(=O)NO)nn2)cc1)N1CC2=CC(=O)[C@@H](C3CC3)[C@@H]2[C@H]1[C@H](O)Cc1ccccc1`, the growth inhibition call is reported as “inactive”. `C[C@H]1CN([C@@H](C)CO)C(=O)c2cccc(NC(=O)C3CC3)c2O[C@@H]1CN(C)C(=O)Nc1ccc2c(c1)OCO2` was tested, and the growth inhibition call was “inactive”. With `Cc1noc(C)c1S(=O)(=O)Nc1ccc2c(c1)CC(=O)N([C@@H](C)CO)C[C@@H](C)[C@H](CN(C)C(=O)NC1CCCCC1)O2` the growth inhibition call was “inactive”. With `C[C@@H]1CN([C@H](C)CO)C(=O)c2cc(NC(=O)Cc3ccccc3)ccc2O[C@@H]1CN(C)Cc1ccc(-c2ccccc2)cc1` the growth inhibition call was “inactive”. In the case of `C[C@H](CO)N1C[C@H](C)[C@@H](CN(C)Cc2ccc(C(F)(F)F)cc2)Oc2ccc(NC(=O)Nc3ccccc3)cc2CC1=O`, the growth inhibition call is reported as “inactive”. `C[C@@H]1CN([C@H](C)CO)C(=O)c2cc(NC(=O)Nc3cccc4ccccc34)ccc2O[C@@H](C)CCCCO[C@H]1CN(C)C` was tested, and the growth inhibition call was “inactive”. For `CC(C)NC(=O)Nc1cccc2c1O[C@H](CN(C)S(=O)(=O)c1cn(C)cn1)[C@@H](C)CN([C@@H](C)CO)C2=O`, the growth inhibition call was “inactive”.
